In PMC6919601, “Identification of Plasmodium dipeptidyl aminopeptidase allosteric inhibitors by high throughput screening” (PLoS ONE, 2019):
The campaign covered roughly 110,000 compounds. About 230 (0.21%) showed an effect of 50% or more. The list shows a part of the results.

molecular target: DPAP1 (Plasmodium falciparum, UniProt Q8IIJ9); experiment: primary screen, percent inhibition; read by cleavage of a fluorogenic dipeptide substrate; higher = more effect of the substance; set-up: species or system P. falciparum D10 trophozoite lysates; single well
Sequence (Q8IIJ9 whole entry, looked up): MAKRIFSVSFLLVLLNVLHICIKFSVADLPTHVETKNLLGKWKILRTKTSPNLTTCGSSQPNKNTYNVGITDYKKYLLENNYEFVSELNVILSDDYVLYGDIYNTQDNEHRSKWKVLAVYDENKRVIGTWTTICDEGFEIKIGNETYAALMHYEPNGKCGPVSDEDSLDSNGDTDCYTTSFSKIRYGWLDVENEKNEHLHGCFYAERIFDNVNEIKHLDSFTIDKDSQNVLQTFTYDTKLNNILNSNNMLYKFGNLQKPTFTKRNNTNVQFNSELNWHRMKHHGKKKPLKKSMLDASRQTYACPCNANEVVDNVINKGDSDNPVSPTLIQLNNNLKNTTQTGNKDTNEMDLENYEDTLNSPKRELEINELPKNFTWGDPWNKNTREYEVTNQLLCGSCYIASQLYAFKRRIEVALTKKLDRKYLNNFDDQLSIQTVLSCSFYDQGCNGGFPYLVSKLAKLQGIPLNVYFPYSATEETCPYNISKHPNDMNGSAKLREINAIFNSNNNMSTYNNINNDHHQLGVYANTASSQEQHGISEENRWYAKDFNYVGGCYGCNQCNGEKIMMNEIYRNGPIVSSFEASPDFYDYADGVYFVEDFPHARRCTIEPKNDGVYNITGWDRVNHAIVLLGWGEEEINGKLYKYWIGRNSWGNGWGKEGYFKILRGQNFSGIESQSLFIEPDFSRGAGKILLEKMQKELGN
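Also: 30 min substrate incubation versus DMSO and 10 µM JCP410 controls.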

Row | Compound | % Inhibition @ 10 uM
1 | CN(C)CCNC(=O)C1CCCN(S(=O)(=O)N2CCCCC2)C1 (centres unmarked) | -0.804%
2 | CCOc1ccccc1CNCc1c(C(=O)O)n(Cc2ccc(C)cc2)c2cc(OC)ccc12 | 4.13%
3 | CCn1cc(CCC(=O)NC2CCCc3ccccc32)c2ccccc21 (centres unmarked) | 0.0244%
4 | Cc1cc(C)nc(N2C(=O)c3ccccc3C2=O)n1 | -0.771%
5 | Cc1c(Cc2ccccc2)c(=O)oc2c3c(ccc12)OCN(Cc1ccco1)C3 | -0.685%
6 | CCCOc1cc(N(CC)CC)ccc1C=C1C(=O)NC(=S)NC1=O | 0.162%
7 | CCc1nc2ccccc2n1CCC(N)=O | 3.05%
8 | Cc1cc(C)nc(SCc2csc(-c3ccccc3)n2)n1 | 0.0289%
9 | CCn1c(CCNC(=O)c2ccc(Cl)cc2)nc2ccccc21 | -4.23%
10 | O=C(c1ccco1)N1CCN(C(=O)c2csc3c2CCCC3)CC1 | 2.95%
11 | COC(=O)c1cc(S(=O)(=O)N2CCN(C3CCCCC3)CC2)cn1C | -2.84%
12 | O=C(Nc1ccccc1C(=O)O)c1cc(S(=O)(=O)N2CCOCC2)c(Br)s1 | 2.6%
13 | CC1CCN(C(=O)/C(=C/c2ccccc2F)NC(=O)c2ccccc2)CC1 | -1.05%
14 | O=C(O)CSCc1cnn(-c2ccccc2)c1-n1cccc1 | -1.99%
15 | Cc1nnc(N2CCC(C(=O)NCCC3=CCCCC3)CC2)c2nn(-c3ccccc3)c(C)c12 | 0.931%
16 | CCC(=O)N1c2ccccc2N=C2CC(C)(C)CC(O)=C2C1c1cccc(F)c1 (centres unmarked) | -10.7%
17 | COC(=O)c1c(N)sc(C)c1C | 12.9%
18 | CC(C)C[C@H](NC(=O)OCC1CC=CCC1)C(=O)NCC#N (some centres unmarked) | -10.1%
19 | CC(C)Cn1cc(NC(=O)N2CCN(C(=O)c3ccco3)CC2)c2ccccc2c1=O | -3.26%
20 | OCCNCc1cccc(OCc2ccccc2Cl)c1 | -3.09%
21 | O=C(O)CCNc1ncnc2[nH]cnc12 | -5.28%
22 | CCOC(=O)C1=C(C)OC(N)=C(C#N)C1c1ccc(F)cc1F (centres unmarked) | 1.96%

Row | Compound | % Inhibition @ 10 uM
23 | CC(C)C(=O)N1CCN(c2ccc(NC(=O)c3ccco3)cc2Cl)CC1 | -1.61%
24 | CCn1nc(C)c(NC(=O)CSc2nc(-c3ccc(OC)c(OC)c3)cc(C(F)(F)F)n2)c1C | -2.09%
25 | COc1cc2c(cc1OC)C(c1ccccc1)=NCC2 | 0.132%
26 | O=C(O)CCC(=O)Nc1ccccc1C(=O)N1CCN(c2ccc(Cl)cc2)CC1 | -0.872%
27 | Cc1nc(O)nc(O)c1S(=O)(=O)N1CCCC(C(=O)NCc2ccc3c(c2)OCO3)C1 (centres unmarked) | 2.93%
28 | COC(=O)c1ccc(Cl)c(-n2cccc2)c1 | -3.08%
29 | O=C(COc1ccccc1)Nc1ccc2c(c1)OCO2 | -9.17%
30 | Cc1c(C#N)c(O)nc(O)c1/C=N/c1ccc(S(=O)(=O)CCO)cc1 | 2.46%
31 | c1nc(N2CCN(C3CCCCC3)CC2)c2nc[nH]c2n1 | -6.98%
32 | Cc1ccc2[nH]c(SCCCOc3ccccc3)nc2c1 | -0.0235%
33 | Cc1ccc(CNc2nc3c(c(=O)[nH]c(=O)n3C)n2CC(O)COC(C)C)cc1 (centres unmarked) | 4.67%
34 | CCCN1CCN(C(=O)C2CCN(c3nnc(C)c4c(C)n(-c5ccccc5)nc34)CC2)CC1 | 3.25%
35 | Cc1nc2c(N3CCOCC3)ncnc2[nH]1 | -8.12%
36 | Brc1ccc(OCCn2ccnc2)cc1 | -1.56%
37 | CCSc1nc(O)c(CC)c(=O)n1C(C)CC (centres unmarked) | -5.32%
38 | Cc1csc(NC(=O)C(=O)c2cc(C)n(-c3c(C)cccc3C)c2C)n1 | 0.655%
39 | O=C(Nc1sc2c(c1CN1CCCCC1)CCCC2)c1ccc(Br)cc1 | 1.08%
40 | CCCCC(=O)Nc1ccc(-c2cn3cccc(C)c3n2)cc1 | -2.64%
41 | CC(C)OC(=O)c1ccc(-c2ccc(C=C3C(=O)OC(C)(C)OC3=O)o2)cc1 | -9.24%
42 | CCOc1ccc(S(=O)(=O)N(CC(=O)N2CCCCCC2)c2ccc(C)cc2)cc1 | -6.3%
43 | CC(C)C(=O)Nc1ccc2nc(-c3cccc(F)c3)oc2c1 | 1.05%
44 | O=C(CSc1ccccn1)Nc1nccs1 | 2.19%

Row | Compound | % Inhibition @ 10 uM
45 | CCC(C)c1ccccc1NC(=O)c1cccnc1 (centres unmarked) | 2.22%
46 | Cc1csc(NC(=O)c2ccccc2Cl)n1 | 5.55%
47 | Cc1ccc2c(CC(=O)NC3CCS(=O)(=O)C3)coc2c1C (centres unmarked) | -0.671%
48 | N#C/C(=C\c1ccccc1F)c1nc(-c2ccccc2)cs1 | 3.47%
49 | O=C(C1c2ccccc2Sc2ccccc21)N1CCCCC1 | -0.828%
50 | COc1cc2c(cc1OC)CN(Cc1cc(Br)c(O)c(OC)c1)CC2 | 1.4%
51 | CC1=C(C(=O)Nc2cccc(C)n2)C(c2ccccc2C)C2=C(O)CCCC2=N1 (centres unmarked) | 4.65%
52 | Cc1cc(C)c2ccc(=O)cc-2o1 | 5.08%
53 | COc1cccc(C2C3=C(O)CCCC3=NC(C)=C2C(=O)Nc2cccc(C(F)(F)F)c2)c1OC (centres unmarked) | 2.38%
54 | COC(=O)C1=C(C)NC(=O)NC1c1ccc2c(c1)OCCO2 (centres unmarked) | -3.74%
55 | O=C(CSc1nnc2ccccn12)Nc1nc(-c2ccc(Cl)cc2)ns1 | -1.11%
56 | CCOC(=O)c1cnc2c(C(F)(F)F)cccc2c1NCCO | 1.52%
57 | CCOC(=O)N1CCC(NC(=O)C2CCCN(c3nc4ccccc4o3)C2)CC1 (centres unmarked) | 0.387%
58 | CN1CCN(CCNC(=O)c2[nH]c3ccccc3c2Sc2ccc(Cl)cc2)CC1 | -6.82%
59 | O=C(CNC(=S)N(Cc1ccccc1)Cc1ccccc1F)NCc1ccc2c(c1)OCO2 | 5.99%
60 | CCC(C)(C)NS(=O)(=O)c1ccc(CCN2C(=O)c3cccnc3C2=O)cc1 | 2.42%
61 | CCSC1=C(C#N)C(c2ccc(C)cc2)CC(=O)N1 (centres unmarked) | 0.673%
62 | CC1=C(C(=O)OCC2CCCCC2)C(c2ccccc2Cl)NC(=O)N1 (centres unmarked) | 2%
63 | C=CCN1CC(c2nc3ccccc3n2CC(C)C)CC1=O (centres unmarked) | -3.49%
64 | NC(=O)C1(N2CCCCC2)CCN(C2CC(=O)N(CC(c3ccccc3)c3ccccc3)C2=O)CC1 (centres unmarked) | -11.3%
65 | Cc1ccc(C)c(N(CC(=O)N2CCN(Cc3ccccc3)CC2)S(=O)(=O)c2ccccc2)c1 | -1.43%
